Screen size: about 310,000 compounds; about 14,000 (4.5%) showed an effect of 50% or more. The effect is printed as a negative number. Some of the results follow.
biological target: human ether-à-go-go-related gene (hERG) potassium channel (human, UniProt Q12809); assay: primary screen, population patch clamp on CHO cells stably expressing hERG
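Also: peak tail current of the secondary pulse compared with the same well before compound.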

Sequence of human ether-à-go-go-related gene (hERG) potassium channel (Q12809 whole entry, looked up): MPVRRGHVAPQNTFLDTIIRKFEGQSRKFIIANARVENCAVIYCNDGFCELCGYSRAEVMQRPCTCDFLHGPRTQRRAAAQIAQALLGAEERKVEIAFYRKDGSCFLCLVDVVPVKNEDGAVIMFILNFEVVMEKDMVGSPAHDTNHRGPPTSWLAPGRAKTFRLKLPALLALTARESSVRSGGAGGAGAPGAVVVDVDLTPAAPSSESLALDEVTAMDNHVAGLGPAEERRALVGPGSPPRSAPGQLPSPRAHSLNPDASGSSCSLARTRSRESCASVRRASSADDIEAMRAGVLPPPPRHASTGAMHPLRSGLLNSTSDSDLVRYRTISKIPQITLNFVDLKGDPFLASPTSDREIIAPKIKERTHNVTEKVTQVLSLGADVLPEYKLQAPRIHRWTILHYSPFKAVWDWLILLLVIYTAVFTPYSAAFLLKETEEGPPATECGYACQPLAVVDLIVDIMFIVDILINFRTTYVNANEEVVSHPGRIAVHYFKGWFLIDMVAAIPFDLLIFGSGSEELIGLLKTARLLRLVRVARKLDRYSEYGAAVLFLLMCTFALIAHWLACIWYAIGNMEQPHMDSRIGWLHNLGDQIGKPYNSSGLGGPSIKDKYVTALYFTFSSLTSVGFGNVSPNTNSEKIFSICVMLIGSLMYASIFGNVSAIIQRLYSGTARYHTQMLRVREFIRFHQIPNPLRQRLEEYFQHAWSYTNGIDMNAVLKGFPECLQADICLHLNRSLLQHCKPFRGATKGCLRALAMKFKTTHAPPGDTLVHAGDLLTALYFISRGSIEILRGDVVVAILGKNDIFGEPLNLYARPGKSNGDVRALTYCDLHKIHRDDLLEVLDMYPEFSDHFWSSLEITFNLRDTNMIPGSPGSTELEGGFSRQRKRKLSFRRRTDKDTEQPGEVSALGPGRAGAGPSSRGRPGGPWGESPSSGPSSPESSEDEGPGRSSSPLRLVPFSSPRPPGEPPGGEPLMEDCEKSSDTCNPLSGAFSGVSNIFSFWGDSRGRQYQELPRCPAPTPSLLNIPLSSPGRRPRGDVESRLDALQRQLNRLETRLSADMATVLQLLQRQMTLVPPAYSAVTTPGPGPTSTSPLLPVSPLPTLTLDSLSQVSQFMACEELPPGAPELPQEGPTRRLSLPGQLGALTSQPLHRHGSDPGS

| Compound | hERG current change (%, negative = inhibition) at 10uM [%] |
| --- | --- |
| CC(NCc1cccn1C)c1ccccc1.Cl (stereo not drawn) | -7.72 |
| Cc1ccc(NC(=S)N2CCN(S(C)(=O)=O)CC2)cc1C | 11.3 |
| CC(C)OC(=O)c1cc(NC(=S)Nc2ccc([N+](=O)[O-])cc2)cc(C(=O)OC(C)C)c1 | 18.4 |
| C=CCn1c(C)cc(C(=O)COC(=O)C2CC(=O)N(CCc3ccc(OC)c(OC)c3)C2)c1C (stereo not drawn) | -0.34 |
| COc1ccc(NC(=O)c2cc(S(=O)(=O)N3CCOCC3)ccc2N2CCOCC2)cc1 | -7.89 |
| O=C1CN(c2nc(-c3cccnc3)nc3scc(-c4ccccc4)c23)CCN1 | -19.9 |
| Cc1ccccc1NC(=O)Cc1nc(COC(=O)c2cc(Br)ccc2O)cs1 | 5.79 |
| COc1cc([N+](=O)[O-])ccc1NC(=O)CN1CCN(C(=O)c2ccco2)CC1 | -78.4 |
| Cc1ccnc(NC(=O)CNC(=O)c2ccc3ccccc3c2)c1 | -12.5 |
| CCCCn1c(N)c(N(CCC(C)C)C(=O)CC2CCCCC2)c(=O)[nH]c1=O | 10.9 |
| COc1cc(-c2ccccc2)nc2ccccc12 | -23 |
| N#CC1=C2SCN(c3ccccc3)CN2C(=O)CC1c1ccccc1Cl (stereo not drawn) | 16.2 |
| O=C(COc1ccccc1)NCc1n[nH]c(=S)n1-c1ccccc1 | 17.5 |
| O=C1CSC(c2ccc([N+](=O)[O-])cc2)N1c1ccccc1 (stereo not drawn) | -24.8 |
| Fc1ccccc1OCCCCn1cncn1 | -5.81 |
| Cc1ccc(C(=O)NCc2ccco2)c(C)c1 | 20.5 |
| O=C(NCc1ccc2c(c1)OCO2)c1cc(-c2cc(Cl)ccc2O)n[nH]1 | 11.6 |
| CC1CC(C)CN(C(=O)CSc2nnc(-c3ccco3)o2)C1 (stereo not drawn) | 1.93 |
| Cc1nnc(NC(=O)CSc2nnc(CNC(=O)c3ccccc3)o2)s1 | 12.5 |

| Compound | hERG current change (%, negative = inhibition) at 10uM [%] |
| --- | --- |
| Cc1ccc(SCC(=O)c2cc(C)c(O)c(C)c2)cc1 | -3.19 |
| CCOC(=O)c1cn2nc(Oc3ccccc3)ccc2n1 | -12.8 |
| COCCN(C(=O)CNC(=O)c1ccco1)C(C(=O)NC1CCCC1)c1cccc(OC)c1 (stereo not drawn) | 16.8 |
| O=C(NNC(=O)C12CC3CC(CC(O)(C3)C1)C2)c1ccccc1O | 2.56 |
| CN(C(=O)COc1ccccc1)c1nnc(-c2cccnc2)s1 | -7.56 |
| CCCCNC(=O)CSc1nnc(-c2ccco2)n1C | -1.72 |
| CC(=O)Nc1ccc(C(=O)N(C)C(C(=O)Nc2ccccc2)c2ccccn2)cc1 (stereo not drawn) | -7.53 |
| COCCn1c(-c2cc(OC)c(OC)c(OC)c2)nc2oc3ccccc3c(=O)c2c1=O | 4.4 |
| Cc1ccc(OCCCC(=O)Nc2cc(Cl)ccc2-n2cncn2)cc1 | -22.4 |
| COc1ccccc1NC(=O)C(C)Sc1nnnn1C (stereo not drawn) | 4.37 |
| CC(C)C(NC(=O)CN1C(=O)c2ccccc2C1=O)c1ccccc1 (stereo not drawn) | 18.9 |
| N/C(Cc1ccc([N+](=O)[O-])cc1)=N\OC(=O)c1ccc([N+](=O)[O-])cc1 | -57.6 |
| COc1ccc(Cl)cc1C(=O)NNC(=O)c1cccnc1 | -7.45 |
| O=C(CSc1nnc(NC(=O)C2CC2)s1)NCc1ccco1 | -4.21 |
| N#CCCn1cc(C(N)=O)c(-c2ccc3ccccc3c2)n1 | 13.5 |
| COc1ccc(/C=C/C(=O)NCC2COc3ccccc3O2)cc1OC (stereo not drawn) | -17 |
| CCN(CC(=O)Nc1cc(S(=O)(=O)N2CCCCC2)ccc1Cl)Cc1ccccc1 | 14.3 |
| CC(C)Oc1ccc(C(=O)Nc2c3c(nn2C(C)(C)C)CS(=O)(=O)C3)cc1 | -11.9 |
| CCN(CC)S(=O)(=O)c1cccc(NC(=O)COC(=O)C2=COCCO2)c1 | -13.8 |

| Compound | hERG current change (%, negative = inhibition) at 10uM [%] |
| --- | --- |
| COc1ccc(Cn2c(CCC(=O)Nc3ccc(C)cc3)nc3cccnc32)cc1 | 4.81 |
| CCOC(=O)C1CCN(c2cc3c(cc2NC(=O)c2ccccc2F)n(C)c(=O)n3C)CC1 | 7.95 |
| O=C(NC(=S)Nc1nc(-c2ccc(Br)cc2)cs1)c1cccnc1 | 3.69 |
| Cc1cc(NC(=O)CSc2nnnn2-c2ccccc2F)no1 | 16.1 |
| CCOC(=O)C1CCCc2c1[nH]c1c(C(=O)O)cccc21 (stereo not drawn) | 13.3 |
| COC(=O)C(C)N(C#N)c1nc(C)nc(C)n1 (stereo not drawn) | -2.45 |
| N#Cc1c(-c2ccccc2)nc(SCc2ccc(Cl)cc2)[nH]c1=O | 21.9 |
| N#Cc1c(NC(=O)CCn2cnc3ccccc3c2=O)oc(-c2ccccc2)c1-c1ccccc1 | 13.6 |
| NS(=O)(=O)c1ccc(C(=O)O)cc1 | 19.7 |
| O=C(O)c1ccccc1C(=O)N(Cc1ccccc1)Cc1ccccc1 | 8.03 |
| Cc1ccc2[nH]c(=O)c(CN(C)C(=O)c3cccs3)cc2c1 | -5.06 |
| Br.CCCCCCCCn1c2c(c(=N)c3c1CCC3)CCCC2 | -76.1 |
| CCOC(=O)c1ccc(NC(=O)NCc2ccccn2)cc1 | -0.339 |
| COc1cc(-c2nn3c(Cc4ccccc4)nnc3s2)cc(OC)c1OC | 4.49 |
| COc1ccc(NC(=S)NCc2ccco2)c(OC)c1 | -2.08 |
| Cc1c(-c2ccccc2)nc(N)c(C#N)c1-c1cccnc1 | -9.64 |
| O=c1cc(Nc2ccc3c(c2)OCCO3)[nH]c(=O)n1-c1ccc(Br)cc1 | 14.3 |
| CCOC(=O)c1sc(=NC(=O)/C=C/c2cccs2)n(C)c1C | 11.6 |
| O=C(Nc1ccc(O)cc1C(=O)O)c1ccc(NC(=O)c2ccco2)cc1 | 16.9 |
